{
  "source": "PubChem BioAssay AID463173",
  "about": "(ICCB-Longwood Screening Facility, Harvard Medical School, 2010)",
  "note": "Out of some 52,000 compounds screened, about 1,700 (3.3%) were called active. No stated cut-off is given here; in the data, active means survival mostly below about 52% (no sharp cut-off); inactive means mostly above about 56%. Some of the results follow.",
  "data": [
    {"system": "Wild type", "experiment": "growth inhibition of S. aureus wild type versus tarO mutant, primary screen, teichoic acid synthesis inhibitors, RN4220, OD600 (AID 463173)", "conditions": "S. aureus RN4220 wild type/DeltatarO growth, OD600, 18 h, stronger effect = lower value, screened at 18.75 µg/mL (by protocol)", "values": [
      {"smiles": "CC(C)N1C(=O)CSC1c1ccccc1", "note": "(stereo not drawn)", "survival": "inactive: 107%"},
      {"smiles": "Cc1cccc(NCc2nc3ccccc3n2CCOc2ccccc2C)c1", "survival": "active: -18%"},
      {"smiles": "COc1cc(C(=O)n2nc(-c3ccco3)nc2NCc2ccc(Cl)cc2)cc(OC)c1OC", "survival": "inactive: 86%"},
      {"smiles": "COc1ccc(NC(=O)c2c(C)oc3ccc(O)c(CN4CCCC4)c23)cc1Cl", "survival": "inactive: 86%"},
      {"smiles": "Cc1nc2cccnc2n1CCNC(=O)Nc1cccc2ccccc12", "survival": "inactive: 109%"},
      {"smiles": "COc1ccc(C(=O)NCC(c2ccc(N(C)C)cc2)N2CCCC2)c(OC)c1", "note": "(stereo not drawn)", "survival": "inactive: 75%"},
      {"smiles": "Cc1cccc(-c2nc(CSc3nncn4c3cc3oc(C)cc34)c(C)o2)c1", "survival": "inactive: 90%"},
      {"smiles": "CCSc1ncc(Cl)c(C(=O)Nc2c(C(=O)Nc3cccc(C)c3)oc3ccccc23)n1", "survival": "inactive: 113%"},
      {"smiles": "CC(C)(C)OC(=O)N1CCC(n2nccc2N)CC1", "survival": "inactive: 104%"},
      {"smiles": "Cc1ccc2nc(-c3ccc(Cl)cc3)cc(C(=O)OCC(=O)c3ccccc3)c2c1", "survival": "inactive: 73%"},
      {"smiles": "COc1ccccc1OCC(=O)Nc1nc2c(s1)CC(C)CC2", "note": "(stereo not drawn)", "survival": "inactive: 80%"},
      {"smiles": "CCC(C(=O)NC1CCCCC1)n1c(SCc2ccc(F)cc2)nc2ccncc21", "note": "(stereo not drawn)", "survival": "inactive: 69%"},
      {"smiles": "COc1ccc(NC(=O)c2sc3nc4c(cc3c2N)CN(Cc2ccccc2)CC4)cc1", "survival": "inactive: 91%"},
      {"smiles": "CCc1ccc(C2Sc3ccccc3NC3=C2C(=O)c2ccccc23)cc1", "note": "(stereo not drawn)", "survival": "inactive: 122%"},
      {"smiles": "COc1ccc(C(=O)NCCc2sc(-c3ccc(F)cc3)nc2C)cc1OC", "survival": "inactive: 66%"},
      {"smiles": "CC1CCC(NC(=O)C2(C)Cc3ccccc3C(=O)N2Cc2ccc(F)cc2)CC1", "note": "(stereo not drawn)", "survival": "inactive: 83%"},
      {"smiles": "CCC(Cn1nnc2ccccc2c1=O)NC(=O)Nc1ccc(C)cc1C", "note": "(stereo not drawn)", "survival": "inactive: 90%"},
      {"smiles": "CCOc1ccccc1C(=O)NCc1ccc2c(c1)CCN2C(C)=O", "survival": "inactive: 91%"},
      {"smiles": "Cc1ccc(C2c3[nH]c4ccccc4c3CCN2C(=O)Nc2ccc(C)c(C)c2)cc1", "note": "(stereo not drawn)", "survival": "inactive: 83%"},
      {"smiles": "O=C(NCCc1ccc(Cl)cc1)c1ccc(CSCc2ccccc2Cl)o1", "survival": "inactive: 70%"},
      {"smiles": "CC(=O)c1cccc(NC(=O)c2nc(-c3ccc(C)cc3)n3c2CCCCC3)c1", "survival": "inactive: 72%"},
      {"smiles": "Cc1cccc(NC(=O)C2CCCN(S(=O)(=O)c3cccc4nonc34)C2)c1", "note": "(stereo not drawn)", "survival": "inactive: 92%"},
      {"smiles": "CCOC(=O)C(C)Sc1nnc2ccc3ccccc3n12", "note": "(stereo not drawn)", "survival": "inactive: 79%"},
      {"smiles": "Cc1ccc(NC(=O)C(=O)NCc2ccc(Cl)cc2)cc1", "survival": "inactive: 105%"},
      {"smiles": "O=C(OCCN1CCCCC1)c1cc2ccccc2o1", "survival": "inactive: 110%"},
      {"smiles": "Cc1ccc(S(=O)(=O)Nc2cccc(-c3ccc(N4CCCCC4)nn3)c2)s1", "survival": "inactive: 64%"},
      {"smiles": "CCn1c(SCC#N)nnc1-c1cccc(C)c1", "survival": "inactive: 102%"},
      {"smiles": "COc1ccc(C2(CNC(=O)C(=O)Nc3cccc(C(F)(F)F)c3)CCCC2)cc1OC", "survival": "inactive: 117%"},
      {"smiles": "CCN(CC)c1ccc(C=C2C(=O)c3ccccc3C2=O)c(O)c1", "survival": "inactive: 107%"},
      {"smiles": "COc1cc(OC)c(NC(=O)CCn2cnc3onc(-c4ccc(F)cc4)c3c2=O)cc1Cl", "survival": "inactive: 64%"},
      {"smiles": "Cc1oc(-c2cccc(Cl)c2)nc1CN1CCC(C(=O)NCCCN2CCN(c3cccc(Cl)c3)CC2)CC1", "survival": "inactive: 80%"},
      {"smiles": "Nc1cc(=O)nc(SCC(=O)Nc2ccc(F)cc2)n1-c1ccc(Cl)cc1", "survival": "inactive: 72%"},
      {"smiles": "CCOc1ccc(NC(=O)N(Cc2c[nH]c3ccccc23)C2CCCCC2)cc1", "survival": "inactive: 79%"},
      {"smiles": "Cc1ccc(CNCc2c(C(=O)O)n(Cc3ccccc3C)c3cc(C)ccc23)cc1", "survival": "inactive: 63%"},
      {"smiles": "Nc1ncnc2nc(SCC(=O)O)[nH]c12", "survival": "inactive: 104%"},
      {"smiles": "CCCCNC(=O)c1[nH]c2ccccc2c1Sc1ccc(C)cc1", "survival": "inactive: 83%"},
      {"smiles": "O=C(Cn1c(=O)sc2ccccc21)Nc1cccc(Cl)c1", "survival": "inactive: 102%"},
      {"smiles": "CC1(C)CC2CC(C)(CN2C(=O)c2cc(-c3ccccc3)on2)C1", "note": "(stereo not drawn)", "survival": "inactive: 97%"},
      {"smiles": "Cn1cc(S(=O)(=O)N2CCCCC2)cc1C(=O)N1CCN(c2ccc(F)cc2)CC1", "survival": "inactive: 65%"},
      {"smiles": "Cc1cc(=O)n(CC(=O)NCCC(C)C)c2c1c(C)nn2C", "survival": "inactive: 71%"},
      {"smiles": "Cc1ccc2c(c1)c(=O)c(C(=O)c1ccncc1)cn2CC(=O)Nc1c(C)cccc1C", "survival": "inactive: 72%"},
      {"smiles": "Cc1cc2c(=O)c(C(=O)c3ccncc3)cn(CC(=O)Nc3cccc(C)c3C)c2cc1C", "survival": "inactive: 78%"},
      {"smiles": "CC(NC(=O)CN(C)S(=O)(=O)c1ccc2c(c1)c(=O)n(C)c(=O)n2C)c1ccccc1", "note": "(stereo not drawn)", "survival": "inactive: 77%"},
      {"smiles": "Cc1oc(-c2ccc(C(=O)NCc3ccc(N(C)C)cc3)cc2)nc1COc1ccccc1", "survival": "inactive: 55%"},
      {"smiles": "Cc1ccc(C)c(S(=O)(=O)c2cnc(SCC(=O)Nc3ccc(F)cc3F)[nH]c2=O)c1", "survival": "inactive: 70%"},
      {"smiles": "CCc1ccc(NC(=O)CSc2nccn2C2CCCC2)cc1", "survival": "inactive: 84%"},
      {"smiles": "COc1ccc(CCNC(=O)Cn2nc(C)n3c(cc4occc43)c2=O)cc1OC", "survival": "inactive: 86%"},
      {"smiles": "CCOC(=O)c1c(S(=O)(=O)N2CCCC(C(=O)N3CCN(c4ccc(F)cc4)CC3)C2)c(C)n(C)c1C", "note": "(stereo not drawn)", "survival": "inactive: 81%"},
      {"smiles": "COc1ccc(CCNC(=O)Cn2ncc3c(C)n(Cc4ccccc4F)c(C)c3c2=O)cc1OC", "survival": "inactive: 94%"},
      {"smiles": "CCN(CC)CCNC(=O)C1CCCN(c2ncnc3onc(C)c23)C1", "note": "(stereo not drawn)", "survival": "inactive: 77%"},
      {"smiles": "Cc1c(C(N)=O)nnn1-c1ccc(Br)cc1", "survival": "inactive: 102%"},
      {"smiles": "Cc1ccc(C)c(-c2csc(-c3c(N)c(C(=O)c4ccc5c(c4)OCO5)n4ccccc34)n2)c1", "survival": "inactive: 112%"},
      {"smiles": "COc1ccc(NC(c2ccc(F)cc2)c2nnc(-c3ccccc3Cl)o2)cc1Cl", "note": "(stereo not drawn)", "survival": "inactive: 88%"},
      {"smiles": "Cc1cccc(NC(=O)Cn2c(=O)oc3cc(S(=O)(=O)NCc4ccccc4)ccc32)c1", "survival": "inactive: 92%"},
      {"smiles": "Cc1ccc2nc(N(Cc3cccnc3)C(=O)C3CCCCC3)sc2c1", "survival": "inactive: 68%"},
      {"smiles": "COc1ccc(Br)cc1C1CC(=O)Nc2c1c(C)nn2-c1nc(C)cc(C)n1", "note": "(stereo not drawn)", "survival": "inactive: 90%"},
      {"smiles": "CCn1cc(C(=O)OCC(=O)Nc2cc(Cl)ccc2OC)c(=O)c2ccc(C)nc21", "survival": "inactive: 69%"},
      {"smiles": "COc1cc(CNCc2c(C(=O)O)c(C)n(Cc3cccc(Cl)c3)c2C)cc(OC)c1OC", "survival": "inactive: 83%"},
      {"smiles": "CCc1ccc2nc(N3CCC(C(=O)O)CC3)sc2c1", "survival": "inactive: 75%"},
      {"smiles": "CCc1cccc(NC(=O)CN2C(=O)CCc3cc(S(=O)(=O)N4CCOCC4)ccc32)c1", "survival": "inactive: 71%"},
      {"smiles": "CCSc1nc2n(n1)C(c1ccc(CC)cc1)C(C(=O)Nc1ccccc1OC)=C(C)N2", "note": "(stereo not drawn)", "survival": "inactive: 68%"},
      {"smiles": "CCC(C(=O)N1CCN(c2cc(Cl)ccc2C)CC1)n1nc(C)n2c(cc3occc32)c1=O", "note": "(stereo not drawn)", "survival": "inactive: 86%"},
      {"smiles": "Cc1c(Cl)cccc1-n1c(CCC(=O)O)ccc1-c1cccs1", "survival": "inactive: 69%"},
      {"smiles": "COc1ccc(Br)cc1CNC(=O)C(C)n1nc(C)n2c(cc3occc32)c1=O", "note": "(stereo not drawn)", "survival": "inactive: 61%"},
      {"smiles": "CCN(CC)c1cc(C)nc2nc(-c3ccc(C)cc3)nn12", "survival": "inactive: 83%"},
      {"smiles": "O=C(CN(c1cccc(Br)c1)S(=O)(=O)c1ccccc1)N1CCOCC1", "survival": "inactive: 104%"},
      {"smiles": "Cc1ccc2oc(C(=O)Nc3nnc(CC(C)C)s3)cc(=O)c2c1", "survival": "inactive: 85%"},
      {"smiles": "CC(C)(CO)C(O)C(=O)NN", "note": "(stereo not drawn)", "survival": "inactive: 103%"},
      {"smiles": "COc1ccc(N2CCN(C(=O)c3cc4c(=O)n(Cc5ccccc5)ccc4nc3C)CC2)cc1", "survival": "inactive: 74%"},
      {"smiles": "Cc1ccc(CN2CCSc3ccc(C(=O)Nc4ccc(F)cc4F)cc32)cc1", "survival": "inactive: 97%"},
      {"smiles": "COC(=O)c1nnn(CC(=O)NC(=O)Nc2ccccc2F)c1C(=O)OC", "survival": "inactive: 77%"},
      {"smiles": "Cc1noc(NS(=O)(=O)c2ccc(NC(=O)c3ccc(Br)cc3)cc2)c1C", "survival": "inactive: 72%"},
      {"smiles": "Cc1ccc(OCc2nnc(SCC(=O)CC(=O)Nc3ccccc3)o2)cc1", "survival": "inactive: 84%"},
      {"smiles": "CCCN(CCC)C1=CC(=O)C(C(C)(C)C)=CC1=O", "survival": "inactive: 101%"},
      {"smiles": "C=CCn1c(SCC(=O)O)nnc1-c1ccco1", "survival": "inactive: 101%"},
      {"smiles": "Cc1c(Cl)cccc1NC(=O)c1ccc2nc(C(C)C)oc2c1", "survival": "inactive: 77%"},
      {"smiles": "CCc1ccccc1Nc1nn2c(=O)c3ccc(C(=O)Nc4ccc(OC)cc4)cc3nc2s1", "survival": "inactive: 66%"},
      {"smiles": "Cc1ccc(-c2cc(C(=O)N3CCCC3)no2)cc1", "survival": "inactive: 109%"},
      {"smiles": "CCN1CCC(N(Cc2ccc(F)cc2)C(=O)Nc2cccc(C(F)(F)F)c2)CC1", "survival": "inactive: 124%"},
      {"smiles": "CC(C)n1c(SCC(=O)N(Cc2ccccc2)C(C)(C)C)nc2c1c(=O)n(C)c(=O)n2C", "survival": "inactive: 105%"},
      {"smiles": "Cc1c(-c2ccccc2)nc2ccccc2c1C(=O)O", "survival": "inactive: 110%"},
      {"smiles": "O=C(CSc1nc2ccccc2nc1Cc1ccccc1)N1CCN(c2ccccc2)CC1", "survival": "inactive: 68%"},
      {"smiles": "CC(=O)Nc1cc(-c2ccccc2)nn1Cc1cccc(Cl)c1", "survival": "inactive: 59%"},
      {"smiles": "Cc1cccc(NC(=O)NCCOCCn2c(=O)oc3ccccc32)c1C", "survival": "inactive: 112%"},
      {"smiles": "O=C(O)CN=C1NC2(CCCC2)Cc2ccccc21", "survival": "inactive: 109%"},
      {"smiles": "CC1Cc2cc(S(=O)(=O)CCC(=O)Nc3ccc(Cl)cc3F)ccc2N1C(=O)C1CC1", "note": "(stereo not drawn)", "survival": "inactive: 66%"},
      {"smiles": "COc1ccc(CCC(=O)NCc2nc3cccnc3n2Cc2ccccc2)cc1", "survival": "inactive: 63%"},
      {"smiles": "CCc1ccccc1NC(=O)C1CCN(S(=O)(=O)c2cc(OC)ccc2OC)CC1", "survival": "inactive: 103%"},
      {"smiles": "COc1ccc(-c2nnn(CCC(=O)O)n2)cc1", "survival": "inactive: 102%"},
      {"smiles": "CC(C)Oc1ccc(C(=O)Nc2ccc(-c3nc4ccccc4s3)cc2)cc1", "survival": "inactive: 92%"},
      {"smiles": "COc1ccc(CCNC(=O)CCc2c(C)c3cc4c(C)coc4cc3oc2=O)cc1", "survival": "inactive: 90%"},
      {"smiles": "COc1ccccc1C(=O)Nc1cc(-c2ccc(C)cc2)no1", "survival": "inactive: 73%"},
      {"smiles": "Cc1ccccc1Cn1c(CN2CCN(c3cc(Cl)ccc3C)CC2)nc2c1c(=O)[nH]c(=O)n2C", "survival": "inactive: 122%"}
    ]}
  ]
}
